44 molecules from ChEMBL document CHEMBL1201862, “PubChem BioAssay data set” (2004) can be followed below.

Counter-ions that a name gives are not always drawn.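 A five-concentration, 48-hour dose response in 96-well plates underlies each endpoint, interpolated linearly between surrounding concentrations. The concentration for 50% growth inhibition is given as GI50.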 The source made the active and inactive calls. Cut-off read from the data, not from the text of the source: active = GI50 up to about 1.1 µM and inactive = higher. Where only a bound is given, the exact number is not on record here.

This experiment concerns NCI-H322M. Briefly: DTP human tumour cell line panel, 48 h.
With `Cc1nc(=O)c2cc(CN(C)c3ccc(C(=O)N[C@@H](CCC(=O)O)C(=O)O)s3)ccc2[nH]1` [RALTITREXED], the GI50 is inactive: > 100 µM.

Regarding `O=c1ccc2[n+]([O-])c3ccc(O)cc3oc-2c1` [RESAZURIN], the GI50 was inactive: 22.9 µM.

With `COC(=O)[C@H]1[C@H]2C[C@@H]3c4[nH]c5cc(OC)ccc5c4CCN3C[C@H]2C[C@@H](OC(=O)c2cc(OC)c(OC)c(OC)c2)[C@@H]1OC` [RESERPINE], the GI50 was inactive: 22.2 µM.

Take `CC1=C(/C=C/C(C)=C/C=C/C(C)=C/CO)C(C)(C)CCC1` [RETINOL]: the GI50 was inactive: 27.1 µM.

For the molecule `O=C1CSC(=S)N1` [RHODANINE], the GI50 was inactive: > 100 µM.

Consider `C[C@@H]1O[C@@H](O[C@H]2[C@H](Oc3cc(O)c4c(=O)cc(-c5ccc(O)cc5)oc4c3)O[C@H](CO)[C@@H](O)[C@@H]2O)[C@H](O)[C@H](O)[C@H]1O` [RHOIFOLIN], for which the GI50 is inactive: > 100 µM.

For the molecule `O=C(/C=C/c1ccc(Oc2cc(C(=O)/C=C/c3ccc(O)cc3)c(O)cc2O)cc1)c1ccc(O)cc1O` [RHUSCHALCONE II], the GI50 was inactive: 7.28 µM.

For the molecule `O=C(/C=C/c1ccc(O)c(-c2cc(C(=O)/C=C/c3ccc(O)cc3)c(O)cc2O)c1)c1ccc(O)cc1O` [RHUSCHALCONE VI], the GI50 is inactive: 19.2 µM.

As to `C1COC(NC(C2CC2)C2CC2)=N1` [RILMENIDINE], the GI50 was inactive: > 100 µM.

Consider `Oc1ccc(C(O)C2CCCCN2)cc1O` (centres undefined) [RIMITEROL HYDROBROMIDE], for which the GI50 is inactive: > 100 µM.

In the case of `COc1ccc([C@@]23Oc4cc(OC)cc(OC)c4[C@]2(O)[C@H](O)[C@H](C(=O)N(C)C)[C@H]3c2ccccc2)cc1` [ROCAGLAMIDE], the GI50 was active: 0.00973 µM.

In the case of `CS(=O)(=O)c1ccc(C2=C(c3ccccc3)C(=O)OC2)cc1` [ROFECOXIB], the GI50 is inactive: > 100 µM.

As to `CCC1(c2ccncc2)CCC(=O)NC1=O` (centres undefined) [ROGLETIMIDE], the GI50 was inactive: > 100 µM.

`C=C(C)[C@H]1Cc2c(ccc3c2O[C@@H]2COc4cc(OC)c(OC)cc4[C@@H]2C3=O)O1` [ROTENONE]: the GI50 is active: 0.221 µM.

Take `NS(=O)(=O)c1ccc(/N=N/c2ccc(O)c(C(=O)O)c2)cc1` [SALAZOSULFAMIDE]: the GI50 was inactive: > 100 µM.

For the molecule `CC(C)=CCC/C(C)=C/CC/C(C)=C/CSc1ccccc1C(=O)O` [SALIRASIB], the GI50 is inactive: 15.6 µM.

With `CN(CC(N)=O)C(=O)N(CCCl)N=O` [SARCNU], the GI50 was inactive: > 100 µM.

With `Cc1ccccc1/N=N/c1ccc(/N=N/c2c(O)ccc3ccccc23)c(C)c1` [SCARLET RED], the GI50 is inactive: > 100 µM.

`CN1[C@@H]2C[C@@H](OC(=O)[C@H](CO)c3ccccc3)C[C@H]1[C@@H]1O[C@@H]12` [SCOPOLAMINE HYDROBROMIDE]: the GI50 was inactive: > 100 µM.

For `COc1cc2ccc(=O)oc2cc1O` [SCOPOLETIN], the GI50 is inactive: 42.2 µM.

Consider `Cc1cc(C)c(/C=C2\C(=O)Nc3ccccc32)[nH]1` [SEMAXANIB], for which the GI50 is inactive: > 100 µM.

As for `C/C=C1/C[C@@H](C)[C@@](C)(O)C(=O)OCC2=CC[N+]3([O-])CC[C@@H](OC1=O)[C@@H]23` (some centres undefined) [SENECIONINE N-OXIDE], the GI50 is inactive: > 100 µM.

For the molecule `C=C1C/C(=C/C)C(=O)O[C@@H]2CCN3CC=C(COC(=O)[C@]1(C)O)[C@H]23` [SENECIPHYLLINE], the GI50 was inactive: > 100 µM.

As to `CC(C)=CCc1c2c(c3occ(-c4ccc(O)cc4)c(=O)c3c1O)CC(C(C)(C)O)O2` (centres undefined) [SENEGALENSIN], the GI50 is inactive: 6.38 µM.

For the molecule `CCC(C)(C)C(=O)O[C@H]1C[C@@H](C)C=C2C=C[C@H](C)[C@H](CC[C@@H]3C[C@@H](O)CC(=O)O3)[C@H]21` [SIMVASTATIN], the GI50 was inactive: > 30 µM.

With `C=C(C)[C@H]1CC[C@@]23O[C@@H]2[C@@H](C[C@@]2(C)CC(=O)[C@H](CC(=O)C1)O2)OC(=O)[C@@]12CC[C@H](C(=C)C)CC(=O)C[C@H]4O[C@](C)(CC4=O)C[C@@H](OC3=O)[C@@H]1O2` [SINGARDIN], the GI50 was inactive: > 100 µM.

For the molecule `COc1cccc(O)c1-c1cc(=O)c2c(O)c(OC)c(OC)c(OC)c2o1` [SKULLCAPFLAVONE II], the GI50 was inactive: 48.9 µM.

As to `Cc1cc(O)c2c(c1)C(=O)c1c(c(O)cc(O)c1-c1c(O)cc(O)c3c1C(=O)c1cc(C)cc(O)c1C3=O)C2=O` [SKYRIN], the GI50 was inactive: 22.6 µM.

With `CN(Cc1ccccc1)C(=S)S` [SODIUM BENZYL(METHYL)CARBAMODITHIOATE], the GI50 is inactive: 47.8 µM.

For the molecule `CCCC(=O)[O-].[Na+]` [SODIUM BUTYRATE], the GI50 is inactive: 3460 µM.

On to `CN(C)C(=S)S` [SODIUM DIMETHYLCARBAMODITHIOATE], for which the GI50 is inactive: > 61.7 µM.

Take `CN[C@@H]1[C@H](O)[C@H](NC)[C@H]2O[C@@]3(O)C(=O)C[C@@H](C)O[C@H]3O[C@@H]2[C@H]1O` [SPECTINOMYCIN SULFATE]: the GI50 is inactive: > 100 µM.

For `NCCCCNCCCN` [SPERMIDINE TRIHYDROCHLORIDE], the GI50 was inactive: > 100 µM.

Take `O=C1NC2(CCCCC2)C(=O)N1CCN(CCCl)CCCl` [SPIROMUSTINE]: the GI50 is inactive: > 250 µM.

`Cc1cn([C@H]2C=C[C@@H](CO)O2)c(=O)[nH]c1=O` [STAVUDINE]: the GI50 was inactive: > 1000 µM.

Consider `COc1cc(C)c2c(c1C=O)Oc1c(c(C)c(O)c3c1C(O)OC3=O)OC2=O` (centres undefined) [STICTIC ACID], for which the GI50 is inactive: 56.5 µM.

Regarding `CC(=O)O[C@@H]1CO[C@H]2O[C@H]3[C@@H](C(C=O)=C[C@H](O)[C@@H]4C5=C(C(C)C)CC[C@]5(C)CC[C@@]34C)[C@@]2(O)C1=O` [STRIATIN E], the GI50 is active: 0.975 µM.

With `C[C@]12CC[C@H]3[C@@H](CC[C@]4(O)C[C@@H](O)CC[C@]34C=O)[C@@]1(O)CC[C@@H]2C1=CC(=O)OC1` [STROPHANTHIDIN], the GI50 was active: 0.918 µM.

Take `C[C@]12CC[C@H]3[C@@H](CC[C@]4(O)C[C@@H](O)CC[C@]34CO)[C@@]1(O)CC[C@@H]2C1=CC(=O)OC1` [STROPHANTHIDOL]: the GI50 is inactive: 2.86 µM.

Consider `COc1cc2oc(=O)ccc2cc1CC=C(C)C` [SUBEROSIN], for which the GI50 is inactive: 69.8 µM.

Regarding `Nc1ccc(S(=O)(=O)Nc2cnc3ccccc3n2)cc1` [SULFAQUINOXALINE], the GI50 is inactive: > 100 µM.

For `O=C(Nc1ccc(Cl)cc1)NS(=O)(=O)c1ccc2c(c1)CCC2` [SULOFENUR], the GI50 was inactive: 34.2 µM.

For the molecule `Cc1ccc(C(=O)Nc2ccc(S(=O)(=O)O)c3cc(S(=O)(=O)O)cc(S(=O)(=O)O)c23)cc1NC(=O)c1cccc(NC(=O)Nc2cccc(C(=O)Nc3cc(C(=O)Nc4ccc(S(=O)(=O)O)c5cc(S(=O)(=O)O)cc(S(=O)(=O)O)c45)ccc3C)c2)c1` [SURAMIN], the GI50 was inactive: 61.4 µM.

Regarding `C=CCNC1=C2C[C@@H](C)C[C@H](OC)[C@H](O)[C@@H](C)/C=C(\C)[C@H](OC(N)=O)[C@@H](OC)/C=C\C=C(/C)C(=O)NC(=CC1=O)C2=O` [TANESPIMYCIN], the GI50 is active: 0.0977 µM.

For orientation: GI50 means the concentration giving 50% growth inhibition.
